Results from PubChem BioAssay (NCI).
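Compound exposure: 48 hours, 5 concentrations, 96-well plates. GI50 = concentration required for 50% inhibition of growth. TGI: total growth inhibition.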

system: NCI-H322M lung; assay: NCI tumour cell line growth inhibition, 48 h

Compared with `COc1ccc(-c2nc(S(=O)(=O)c3ccccc3)c(S(C)(=O)=O)o2)cc1`, `CCc1ccc(SC2c3cc(OC)ccc3Oc3nc(N)c(C#N)c(N)c32)cc1` (configuration not stated) is 2.3-fold lower in GI50: 16 µM for the first, 6.84 µM for the second.

`COc1cnc2c(c1)C(=O)c1c-2n(CCCNCCO)c(=O)c2cc(OC)c(OC)cc12` and `C=CC(=O)N1CCN(c2ccc3nc4c(nc3c2C(F)(F)F)C(=O)c2ncccc2C4=O)CC1` are within 1.5-fold of each other in GI50: 3.51 µM for the first, 4.43 µM for the second.

Compared with `O=C(/C=C/c1ccc(F)cc1)c1nc2ccccc2n1Cc1ccc(Br)cc1`, `CN(C)c1nc(NCCNS(=O)(=O)c2ccc(C3=Nc4c(N)nc(N)nc4NC(c4ccc(C(F)(F)F)cc4)C3)cc2)nc(N2CCOCC2)n1` (configuration not stated) is 15-fold higher in GI50: 3.13 µM for the first, 45.4 µM for the second.

`COc1ccc(-c2nc(S(=O)(=O)c3ccccc3)c(S(C)(=O)=O)o2)cc1` and `CCc1ccc(SC2c3cc(OC)ccc3Oc3nc(N)c(C#N)c(N)c32)cc1` (configuration not stated) are within 1.5-fold of each other in TGI: 30 µM for the first, 22.6 µM for the second.

`COc1cnc2c(c1)C(=O)c1c-2n(CCCNCCO)c(=O)c2cc(OC)c(OC)cc12` and `C=CC(=O)N1CCN(c2ccc3nc4c(nc3c2C(F)(F)F)C(=O)c2ncccc2C4=O)CC1` are within 1.5-fold of each other in TGI: 18.9 µM for the first, 16.4 µM for the second.

Compared with `O=C(/C=C/c1ccc(F)cc1)c1nc2ccccc2n1Cc1ccc(Br)cc1`, `CN(C)c1nc(NCCNS(=O)(=O)c2ccc(C3=Nc4c(N)nc(N)nc4NC(c4ccc(C(F)(F)F)cc4)C3)cc2)nc(N2CCOCC2)n1` (configuration not stated) is higher in TGI: 13.5 µM for the first, greater than 100 µM for the second.
